Laboratory results as given in the supplement of paper PMC10126150.
Sequences with one replicate were seen in a single cluster, so their values are uncertain.

Test system: ATP
Assay: switch fluorescence ratio, 500 uM ATP over buffer (Cy3 cluster intensity, sum of 5 cycles each) (fold (ratio)); higher = stronger signal-on switching upon ATP binding; sequences stand for … in TCGTCGGCAGCGTCAGATGTGTATAAGAGACAGTTTTTTTTTTTTTTTTTTTTTTTTT…TC
Conditions: aptamer strand: ATP DNA aptamer (quencher-CACCTGGGGGAGTATTGCGGAGGAAGG + anchor), 100 nM annealed; ATP concentration: 500 uM; one replicate
In short: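 Per cluster, summed Cy3 intensity from the target cycles was divided by that from the buffer cycles to give the fluorescence ratio, then averaged per switch-domain sequence. Clusters outside 100-1000 RFU were excluded. The Cy3-labelled switching-strand clusters, on a modified Illumina MiSeq flow-cell, were annealed to 100 nM quencher-labelled ATP aptamer and imaged in selection buffer, then after 15 min with 500 uM ATP at 22 °C, for five cycles with NaOH stripping and re-annealing between them.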
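Also: ATP exposure 15 min at 22 °C before imaging.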

Sequence | switch fluorescence ratio
TAAGTATGCA | 0.968
TATCCCTTCA | 1.28
GTTTCTTGTT | 1
AGGAAACATC | 0.99
GTGCATATGC | 1.02
GAAAGCTGTT | 0.936
CGCCCAGTC | 1.56
ACGCTTCCTC | 2.83
AGTAGAAAGA | 0.976
TACGTTTCCT | 1.03
GGAGTAGG | 1.01
TGAATGGGCG | 0.937
TACCTATT | 1.05
CCCCGTCGTC | 1.21
AATAGAAACT | 0.983
TTTGAGGAAC | 0.995
AGCAAGGCAG | 0.996
CCTAGTATGA | 1.02
TAAGCGATAG | 1.26
AGAGCTTG | 1.04
TGTCACGAAG | 0.986
GATTGTTTGG | 0.991
CATTTAATTT | 0.992

Sequence | switch fluorescence ratio
CTAATTAGAC | 0.972
AAACTAGGAA | 0.986
ATAACACATA | 1.03
GGTGTTTCTG | 0.958
GAACACTCGA | 1.02
TATGACGCTA | 1.71
CAGAAGAACA | 0.992
CCGTGGATTT | 0.995
TTTTAGCCGG | 1.01
CCATCTTCA | 1
GAACCCTCCG | 2.89
TCTTAAATCA | 1.02
TAGCGGGGAT | 0.999
CTGTTATTCC | 0.993
ACGGTGGCAT | 1.06
AATACCGTGC | 1.16
ACGATGCCAT | 1.15
GAGGTGTAAG | 0.965
CATCGTAAGA | 1.01
CTCGGATACG | 0.894
CCCGTAGATA | 1.07
CCGCCGATC | 3.68
AGTGTTTAGA | 1.02

Sequence | switch fluorescence ratio
CTTGCTTGAC | 1.08
GACGCTGTGG | 1.16
ATTTGTGACT | 0.995
CGATGACTGG | 1.06
CGATGCTCT | 1.06
GATAGCTCAA | 0.97
CTTTTGGCGG | 1.03
CGTGGGGTAC | 1.1
TTTGGTAACA | 1.03
TTAGGGGTTA | 1.02
ATAGGCCAA | 1.03
CCAGCACGCG | 1.05
AAAAAGTAAT | 1.04
CGGGAGATTT | 0.986
TGGGAGTTTG | 0.99
CCAAAAAAA | 1.14
AGTACATC | 1.03
TGACTAGCT | 1.16
AATGATAATT | 0.96
CCCACGAAGT | 1.04
ATGCTTCGGG | 1
AGATGGGGCT | 0.993
TTGGTGCAAG | 0.97

Sequence | switch fluorescence ratio
CGTGCGGATT | 0.981
GTAAGTAAAC | 0.971
GCGTAGTGGC | 1
GTTCCGGCAT | 1.12
CATCCTCTTA | 1.03
GCGCCCATGG | 1.03
TCTCTAGT | 1.06
AGAAATTGAA | 0.965
CATGGTCTGG | 0.994
GGCGGACGCT | 0.922
TCAGAAGAGT | 1.02
TATTATCCCT | 0.99
ACTCGAAGA | 1
ACCGTAGATA | 1.11
TCCTATCA | 0.917
CTGAGGAACG | 0.988
GCGATCGCAT | 0.999
TGCCTTATTG | 0.951
CAATAACGT | 1.01
CAGGGGCTAA | 1.02
GCCCTCGGCA | 0.981
TTGTCATATA | 1.04
ATATACCAAG | 1.04

Sequence | switch fluorescence ratio
AGCCTCTTAC | 1.05
CGCTCTCTAA | 1.04
TGGGCGTTGG | 0.978
AATGACGGGG | 0.986
TATATCATAC | 1.05
AGGGTTAAAC | 0.994
ACAGCCGGCG | 1.06
GGGGAAACTC | 2.37
AAACAGCTCG | 1
GTGAGCCTT | 1.01
AATGGCGGCG | 0.997
GGAGCTGGTT | 1.02
CAATCCACG | 1.05
TCTGAAATGT | 0.965
AGAGCTTGT | 1.03
AAAATTAAGG | 0.962
ACATTCACAT | 1.19
TCAAAGTCCG | 0.998
TATGCACTGT | 1.07
GAGTGGTGTA | 1.02
CACATAGCAC | 1.24
AAAATACTTC | 1.18
CTGATAACTT | 1.03

Sequence | switch fluorescence ratio
AGCGGCTGCG | 1.04
GAAGCGGTAT | 1.43
ACAGAAAAGG | 0.985
GGGGACTTCT | 0.997
AACCCCCCCC | 1.61
GTGTTACCCG | 1.04
TAATTTGATA | 0.998
ACATTATTCC | 1.09
ATTAAACCGT | 1.06
TCCAGGTGAA | 5.03
ATGGACAAA | 1.01
AGTATGCGCA | 1.03
GTACTCGTCG | 0.99
TGGCATCCCT | 1.01
AAGGTCGTGC | 0.994
GTAGTTCCAT | 0.983
TGTAGGTA | 0.93
TATGAAACGG | 1.01
TCATGGTAGT | 1
CGACACGTGT | 0.986
AGGGCGTTCG | 0.971
TAGATTGGTT | 0.98
GGAGTAGGA | 0.992

Sequence | switch fluorescence ratio
AATATGTGGC | 1.01
TCGTACCTTA | 1.05
CAACGGGATG | 0.994
TCTGAAGCTG | 1.26
GAGGCGACTC | 0.994
CGATTAAGAA | 0.991
TGAAGCTCTG | 1.03
TATAATGTGA | 1.01
GGGAATTGAT | 1.04
CAACTTACGT | 1.3
TGTTATGAAG | 0.972
TGCAGGGGGA | 0.998
GAGGCAGGCT | 1.07
ACTCCACGGA | 1.46
ATTTTAGTTC | 1.01
CGAGGTTCGA | 0.939
GCTACAGGTC | 1.04
GAAGCGGCGT | 0.972
ACAGCGCCC | 1.05
TATTTCCG | 0.987
